Measurements published in PubChem BioAssay AID662 (National Center for Advancing Translational Sciences (NCATS), 2007).
The whole screen tested about 71,000 compounds, of which about 1,800 (2.5%) were called active. Inconclusive means that the source gave no clear call. Such entries were picked first, then a sample of the others. Calls follow the shape of the dose curve; as a rule, active = well fitted activation curve with a large enough effect in the signal ratio, with a control signal flat (not every such curve was filed as active); inconclusive = small, poorly fitted or top-dose-only effect, or effect the other way, or a change in a side signal; inactive = flat fitted curve, though single readings scatter; the % refers to the signal ratio. A potency beside an inconclusive call is a rough fit, not a confirmed value.

Assay: Cell signaling CRE-BLA (Fsk stim); as to activity change, negative = inhibition: % of control where 0% means no effect
Settings: CHO CRE-bla reporter (cAMP response element driving beta-lactamase), forskolin EC10, beta-lactamase ratio; activity change, negative = inhibition: at 38.2 µM (top of the series) unless noted
Method in brief: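 CHO CRE-bla cells, overnight plating in Opti-MEM with 0.5% dialyzed FBS; cpd titration + EC10 NKH 477, 3 h 37 °C; CCF4 2 h RT; ex 405/em 460 vs 530 ratio → %Activity, AC50.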
Potency is read from the fitted curve at half-maximal effect; tags tell the direction and shape of the fitted curve.

Row | Compound | Potency | activity change, negative = inhibition
1 | COc1ccc(-c2nnc3sc(-c4cccs4)nn23)cc1OC | active: 2.51 µM | 
2 | O=C(O)c1cccc(NC(=O)C23CC4CC(C2)CC(n2cnc(Cl)n2)(C4)C3)c1 |  | inconclusive: -5.44%
3 | Cc1cccn2c(=O)c3cc(C(=O)NCc4ccccn4)n(C)c3nc12 | inconclusive: 1.26 µM [rising, full curve, poor fit] | 
4 | O=C(Nc1ccccc1NC(=O)c1c(F)c(F)c(F)c(F)c1F)c1c(F)c(F)c(F)c(F)c1F |  | inconclusive: -2.42%
5 | COc1ccccc1CNC(=O)C(C)NS(=O)(=O)c1ccc(C)cc1 (stereo not drawn) | inactive | 
6 | O=C(Cc1ccccc1)N1CCCC1c1ccccc1 (stereo not drawn) |  | inconclusive: -19.1% [at 7.6 µM]
7 | COCCn1c(=O)cnc2cnc(OC)nc21 | inactive | 
8 | OC[C@@H]1O[C@@H](n2cnc3c(NCc4ccco4)ncnc32)[C@H](O)[C@H]1O |  | inconclusive: 14.7%
9 | COc1ccc2nc(NC(=O)CSc3nc4cccnc4n3C)sc2c1 |  | inconclusive: 18%
10 | COc1ccc(C(CNC(=O)c2ccc(-n3cnnn3)cc2)N2CCOCC2)cc1 (stereo not drawn) | inconclusive: 0.2 µM [falling, full curve] | 
11 | Cn1cccc1C(=O)N1CCC2(CC1)CN(C(=O)Nc1cccc(F)c1)C2 | inactive | 
12 | Cc1cc(C)n(-c2nc3ccccc3[nH]c2=O)n1 | inactive | 
13 | OC1(C(O)(c2ccc(-c3ccccc3)cc2)c2ccc(-c3ccccc3)cc2)CCCCC1 |  | inactive: -3.79% [at 7.6 µM]
14 | COc1ccc(OC)c(S(=O)(=O)NCc2cn3cccc(C)c3n2)c1 | inactive | 
15 | CC(C#N)Sc1ncnc2sc3c(c12)CCC3 (stereo not drawn) | inconclusive: 12.6 µM [rising, partial curve] | 
16 | CC1(C)CC(O)C(CCC(O)c2ccccc2)C(C)(C)N1 (stereo not drawn) |  | inconclusive: 1.24%
17 | CCCCSCCCNC(=O)CS(=O)Cc1nc(-c2cccc(C)c2)oc1C (stereo not drawn) | inactive | 
18 | CCOC(OCC)P(=O)(c1ccccc1)c1ccccc1 | inactive | 
19 | COc1ccccc1CN1CCC2(CC1)CCN(S(C)(=O)=O)CC2 | inactive | 
20 | Cc1cc(CN2C(=O)c3ccccc3C2=O)cc(N2CCOCC2)c1 |  | inconclusive: 23.7% [at 7.6 µM]
21 | O=C(Cn1cnc2sc(-c3ccccc3)cc2c1=O)NCc1ccco1 |  | inconclusive: -14.2%
22 | CCOc1cc(NC(=O)c2ccco2)c(OCC)cc1NC(=O)Cc1ccc(OC)c(OC)c1 | inconclusive: 10 µM [rising, partial curve] | 
23 | CSc1nc2c(c(=O)n1-c1ccc(C)cc1)SCC2 |  | inconclusive: 14.1%
24 | CCN1CCCC1Cn1c(-c2ccccc2)nc2c(N3CCOCC3)nc(C)nc21 (stereo not drawn) | inactive | 
25 | Cc1cc(C)nc(NC(=O)c2c(-c3ccccc3Cl)noc2C)n1 |  | inconclusive: -9.38%
26 | COc1ccc(CNC(=O)CCS(=O)(=O)c2cccc3nonc23)cc1 |  | inconclusive: -7.77%
27 | O=C(O)c1cc(-c2ccncc2)nc2ccc(S(=O)(=O)N3CCOCC3)cc12 |  | inconclusive: -12.7%

Row | Compound | Potency | activity change, negative = inhibition
28 | O=C(c1ccco1)N1CCN(c2ncnc3c2oc2ccccc23)CC1 |  | inconclusive: 19.2%
29 | NC(=O)N1c2ccccc2C=Cc2ccccc21 | inactive | 
30 | O=C(CCN1C(=O)c2ccccc2C1=O)N1CCN(c2ccccn2)CC1 | inactive | 
31 | COc1ccc(-c2ccc(-c3noc(-c4cccs4)n3)c(OC)n2)cc1 | inconclusive: 12.6 µM [rising, single point] | 
32 | COc1ccc(C(=O)[C@H]2[C@H]3[C@@H](C(=O)[C@@H]4OC[C@H]3O4)[C@H]3C=Cc4ccccc4N32)c(OC)c1 | inactive | 
33 | S=C1N[C@H](c2ccccc2)N[C@H](c2ccccc2)S1 |  | inactive: 11.6% [at 7.6 µM]
34 | COc1ccc(NC(=O)c2oc3ccccc3c2NC(=O)c2ccco2)c(OC)c1 | inconclusive: 12.6 µM [rising, partial curve] | 
35 | Cc1ccc(NC(=O)CN(C)S(=O)(=O)c2cccc3nsnc23)cc1Cl |  | inconclusive: -29%
36 | CSCC[C@H](NC(=O)OC(C)(C)C)c1nnc(SCC(=O)Nc2c(C)cccc2C)o1 |  | inconclusive: -7.26%
37 | COC(=O)c1sccc1NC(=O)c1cccnc1 | active: 12.6 µM | 
38 | O=C(Nc1cc(C(F)(F)F)ccc1Cl)c1cc(C2CC2)on1 |  | inconclusive: 18.3%
39 | COc1ccc(N2CCN(C(=O)CSc3ncccc3-c3nc4ccccc4[nH]3)CC2)cc1 | inactive | 
40 | CC(C)NC(=O)N1CCCC2(CCN(C(=O)c3csnn3)CC2)C1 | inactive | 
41 | Cc1ccc(-c2ccc(=O)[nH]n2)cc1 |  | inconclusive: 14.6%
42 | O=c1c2oc3ccccc3c2ncn1Cc1ccccc1Cl | inconclusive: 25.1 µM [rising, single point] | 
43 | Cc1ccccc1-c1nc(Cc2ccc(Cl)cc2)no1 | inactive | 
44 | Cc1ccc(CCN2CC(C(=O)NCCCN3CCCCCC3)CC2=O)cc1 (stereo not drawn) |  | inconclusive: 12.6%
45 | CC(=O)O[C@H]1C[C@H]2CC[C@@H]3[C@@H](CC[C@]4(C)[C@H](OC(C)=O)[C@H]([N+]5(C)CCCCC5)C[C@@H]34)[C@]2(C)C[C@H]1[N+]1(C)CCCCC1 | inactive | 
46 | Cc1ccc2c(C)nc(Nc3nc(CSc4nnnn4-c4ccccc4)cc(=O)[nH]3)nc2c1 | inconclusive: 12.6 µM [rising, partial curve] | 
47 | S=C(Nc1ccccn1)c1ccccn1 | inactive | 
48 | CCOC(=O)N1CCC(NC(=O)CCC(=O)N2CC(C)Oc3ccccc32)CC1 (stereo not drawn) | inconclusive: 0.2 µM [falling, full curve, poor fit] | 
49 | Cc1ccc(-c2nn(CC(C)(C)C)c3ncnc(N)c23)cc1 |  | inconclusive: -12.1%
50 | CCC(C)N(C(=O)COC(=O)c1cn(CC)c2nc(C)ccc2c1=O)C1CCS(=O)(=O)C1 (stereo not drawn) | inconclusive: 25.1 µM [rising, single point] | 
51 | COc1ccc(OC)c(-c2nnc(SCC(=O)N3CCCc4ccccc43)o2)c1 | inconclusive: 10 µM [rising, partial curve] | 
52 | CC(=O)C1=C(O)C(=O)N(c2cc(C(C)(C)C)on2)C1c1ccc(C(C)C)cc1 (stereo not drawn) | inactive | 
53 | Cc1ccc2cc3c(NC(=O)c4ccco4)nn(C)c3nc2c1 | active: 12.6 µM | 
